In the supplement of paper PMC9446081 one finds relative growth data, which are given here for 57 compounds.

The structures appear in SMILES notation. The whole screen tested about 39,000 compounds, of which about 220 (0.56%) showed activity. Some of the results follow.
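Further: static incubation at 37 °C against the wild-type strain, values averaged over two biological replicates.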

This experiment has as its system Escherichia coli K-12 BW25113. The experiment in a line: relative growth (OD600 normalised to plate interquartile mean) (fraction); higher = less growth inhibition, active = 0.2 or less. To be noted: 50 µM; LB; incubation time: overnight (16-24 h).
With `Fc1ccc(-n2cccc2)c(F)c1`, the relative growth was inactive: 0.979. The same measure for `O=C(C[C@@H]1C=C[C@H](NC(=O)C2CC2)[C@H](CO)O1)NCCCN1CCOCC1`: inactive: 0.97. For `C[C@H]1CN([C@@H](C)CO)C(=O)c2cccc(NC(=O)Nc3ccc4c(c3)OCO4)c2O[C@H]1CN(C)Cc1ccc(C(=O)Nc2ccccc2N)cc1` the value was inactive: 0.98; for `Cc1noc(C)c1NC(=O)N(C)C[C@H]1OCCCC[C@H](C)Oc2ccc(NS(=O)(=O)c3cccs3)cc2C(=O)N([C@H](C)CO)C[C@@H]1C`, inactive: 0.998. The same measure for `C[C@H](CO)N1C[C@H](C)[C@@H](CN(C)Cc2ccc(C(F)(F)F)cc2)Oc2ccc(NC(=O)C3CCCCC3)cc2CC1=O`: inactive: 1.03; for `Cc1noc(C)c1S(=O)(=O)N(C)C[C@@H]1Oc2ccc(NC(=O)Cc3ccccc3)cc2CC(=O)N([C@H](C)CO)C[C@@H]1C`: inactive: 0.992. Regarding `C[C@H](CO)N1C[C@H](C)[C@H](CN(C)S(=O)(=O)c2cn(C)cn2)OCCCC[C@H](C)Oc2ccc(NC(=O)Nc3cccc4ccccc34)cc2C1=O`, the relative growth was inactive: 0.994. For `CN(C)CC(=O)N1CCO[C@]2(COCCN(c3cncnc3)C2)C1` the value was inactive: 0.989; for `Cc1noc(C)c1NC(=O)N(C)C[C@@H]1Oc2c(NC(=O)c3ccncc3)cccc2C(=O)N([C@@H](C)CO)C[C@H]1C`, inactive: 1.01. The same measure for `CN1C(=O)c2cc(NS(=O)(=O)c3ccc(F)cc3)ccc2OC[C@H]2O[C@H](CC(=O)NCC(F)(F)F)CC[C@@H]21`: inactive: 0.963; for `C[C@@H]1CN([C@@H](C)CO)C(=O)c2cc(NC(=O)Nc3ccc(F)cc3)ccc2O[C@@H](C)CCCCO[C@H]1CN(C)C(=O)CCCN(C)C`: inactive: 0.998.

Turning to `C[C@@H]1CN([C@@H](C)CO)C(=O)c2cc(NS(=O)(=O)c3ccc(F)cc3)ccc2O[C@@H](C)CCCCO[C@H]1CN(C)C(=O)CCC(F)(F)F`, the relative growth was inactive: 1.

On to `COc1ccc(NC(=O)Nc2cccc3c2O[C@@H](CN(C)C(=O)Nc2ccc(C(F)(F)F)cc2)[C@H](C)CN([C@H](C)CO)C3=O)cc1`, for which the relative growth was inactive: 0.796. The same measure for `N[C@@H]1CCN(O)C1=O`: inactive: 1. For `COc1ccc(S(=O)(=O)N2CCC(N3C[C@H]4CC[C@@H](N)[C@@H]4C3)CC2)cc1`, the relative growth was inactive: 0.978. As for `NC(=O)N1CCc2n[nH]c(C(=O)N3CCOCC3)c2C1`, the relative growth was inactive: 0.993.

`COc1ccc(S(=O)(=O)Nc2cccc3c2O[C@H](CN(C)Cc2ccc(-c4ccccc4)cc2)[C@H](C)CN([C@@H](C)CO)C3=O)cc1`: the relative growth is inactive: 1. For `COc1ccc(NC(=O)Nc2ccc3c(c2)C(=O)N([C@H](C)CO)C[C@@H](C)[C@H](CN(C)S(=O)(=O)c2cccs2)OCCCC[C@H](C)O3)cc1` the value was inactive: 1.02; for `COc1ccc(NC(=O)N(C)C[C@H]2OCCCC[C@H](C)Oc3ccc(NC(=O)Nc4cccc5ccccc45)cc3C(=O)N([C@H](C)CO)C[C@H]2C)cc1`, inactive: 0.884; for `CCCCC[C@H]1C[C@H](O[C@H]2O[C@@H](CO)[C@@H](O)[C@@H](O)[C@@H]2O)CC(=O)O1`, inactive: 0.991. The same measure for `C[C@@H]1CCCCO[C@H](CN(C)C(=O)Nc2ccccc2)[C@@H](C)CN([C@H](C)CO)C(=O)c2cc(NC(=O)Cc3ccccc3)ccc2O1`: inactive: 0.984; for `C[C@H](CO)N1C[C@H](C)[C@H](CN(C)S(=O)(=O)c2ccc(Cl)cc2)OCCCC[C@H](C)Oc2ccc(NS(=O)(=O)c3cccs3)cc2C1=O`: inactive: 0.999. Regarding `COc1ccc(-c2cnc3c(c2)C(=O)N([C@H](C)CO)C[C@@H](C)[C@@H](CN(C)C(=O)Cc2cccnc2)O3)cc1`, the relative growth is inactive: 1.02. The same measure for `O=C(C[C@@H]1C[C@@H]2c3cc(NC(=O)c4ccc5c(c4)OCO5)ccc3O[C@@H]2[C@@H](CO)O1)NCCN1CCCCC1`: inactive: 1.01; for `CC(C)NC(=O)N(C)C[C@H]1OCCCC[C@H](C)Oc2ccc(NC(=O)C3CCCCC3)cc2C(=O)N([C@H](C)CO)C[C@H]1C`: inactive: 1.01. With `COCCC(=O)N1CCN(c2ccccn2)CC1`, the relative growth is inactive: 0.974.

In the case of `CCOC(=O)CC1=NNC(=N)SC1`, the relative growth is inactive: 1. The same measure for `CO[C@@H]1CN(C)C(=O)c2cc(NC(=O)C3CCOCC3)ccc2OC[C@@H](C)N(C(=O)Nc2ccc(C(F)(F)F)cc2)C[C@H]1C`: inactive: 0.939. Take `C[C@H](CO)N1C[C@H](C)[C@@H](CN(C)C(=O)Nc2ccc3c(c2)OCO3)Oc2ncc(-c3cncnc3)cc2C1=O`: the relative growth is inactive: 0.999. For `C[C@@H]1CN([C@H](C)CO)C(=O)c2cc(Br)cnc2O[C@@H]1CN(C)S(=O)(=O)c1ccc(F)cc1` the value was inactive: 1.01.

Turning to `COc1cccc(S(=O)(=O)N2C[C@H](O)COC[C@H]3O[C@@H](CC(=O)N4CCN(C)CC4)CC[C@@H]32)c1`, the relative growth was inactive: 0.948. The same measure for `COC(=O)[C@@H]1OC(=O)[C@H]2O[C@@]23[C@]2(C)[C@@H](O)C[C@H]4C(C)(C)[C@H](OC(C)=O)C[C@H](OC(C)=O)[C@]4(C)[C@@H]2CC[C@@]13C`: inactive: 0.981; for `COc1cccc(CNC(=O)c2cc3c(c(-c4cccc(-c5cccc(C#N)c5)c4)n2)[C@H](CCO)N([S@@](=O)C(C)(C)C)C3)c1`: inactive: 0.987; for `CC(=O)N[C@H](Cc1ccc2ccccc2c1)C(=O)N[C@H](Cc1ccc(Cl)cc1)C(=O)N[C@H](Cc1cccnc1)C(=O)N[C@@H](CO)C(=O)N[C@@H](Cc1ccc(NC(=O)[C@@H]2CC(=O)NC(=O)N2)cc1)C(=O)N[C@H](Cc1ccc(NC(N)=O)cc1)C(=O)N[C@@H](CC(C)C)C(=O)N[C@@H](CCCCNC(C)C)C(=O)N1CCC[C@H]1C(=O)N[C@H](C)C(N)=O`: inactive: 1.02.

With `C[C@H]1CN([C@@H](C)CO)C(=O)c2cc(NC(=O)Cn3cnnn3)ccc2O[C@@H]1CN(C)C(=O)Nc1ccc(C(F)(F)F)cc1`, the relative growth is inactive: 0.943. For `COc1ccc(S(=O)(=O)Nc2ccc3c(c2)C(=O)N([C@H](C)CO)C[C@H](C)[C@@H](CN(C)CC2CCCCC2)OCCCC[C@H](C)O3)cc1` the value was inactive: 0.946; for `CO[C@@H]1CN(C)C(=O)c2ccc(NC(=O)NC(C)C)cc2OC[C@H](C)N(Cc2ccc(-c3ccccn3)cc2)C[C@H]1C`, inactive: 0.988; for `C[C@H](CO)N1C[C@H](C)[C@H](CN(C)C(=O)Nc2ccc(C(F)(F)F)cc2)OCCCC[C@H](C)Oc2ccc(NC(=O)NC3CCCCC3)cc2C1=O`, inactive: 1.01. For `C[C@@H]1CCCCO[C@H](CN(C)S(=O)(=O)c2cn(C)cn2)[C@@H](C)CN([C@H](C)CO)C(=O)c2cc(NC(=O)c3ccncc3)ccc2O1` the value was inactive: 1.02; for `COc1ccc(NC(=O)Nc2ccc3c(c2)C(=O)N([C@H](C)CO)C[C@@H](C)[C@H](CN(C)Cc2ccc4c(c2)OCO4)OCCCC[C@@H](C)O3)cc1`, inactive: 0.918.

On to `COC1=C2C[C@@H](C)C[C@H](OC)[C@H](O)[C@@H](C)/C=C(\C)[C@H](OC(N)=O)[C@@H](OC)/C=C/C=C(\C)C(=O)NC(=CC1=O)C2=O`, for which the relative growth was inactive: 0.961. Take `CCCNCC(O)COc1ccccc1C(=O)CCc1ccccc1.Cl` (configuration not stated): the relative growth is inactive: 0.929. The same measure for `CN1CCN(C(=O)C[C@@H]2CC[C@H]3[C@@H](COC[C@H](O)CN3S(=O)(=O)c3cccc(Cl)c3)O2)CC1`: inactive: 1.01; for `CCC(=O)Nc1nc(C(=O)NC)cs1`: inactive: 0.994. The same measure for `CN(CP(=O)(O)CN1CCOCC1)S(C)(=O)=O`: inactive: 1.02. For `C[C@H](CO)N1C[C@H](C)[C@@H](CN(C)S(=O)(=O)c2cccs2)OCCCC[C@H](C)Oc2ccc(NC(=O)Nc3ccc4c(c3)OCO4)cc2C1=O` the value was inactive: 1.01; for `C[C@@H]1CN([C@H](C)CO)C(=O)c2cc(NS(=O)(=O)c3cn(C)cn3)ccc2O[C@H]1CN(C)C(=O)Nc1ccccc1`, inactive: 0.992.

Turning to `O=C(C[C@H]1C[C@H]2c3cc(NC(=O)Nc4ccc(C(F)(F)F)cc4)ccc3O[C@H]2[C@@H](CO)O1)NCc1ccc(Cl)cc1`, the relative growth was inactive: 0.983. Take `CC(C)NC(=O)N(C)C[C@@H]1Oc2ccc(NC(=O)CCN3CCOCC3)cc2CC(=O)N([C@H](C)CO)C[C@H]1C`: the relative growth is inactive: 0.993. The same measure for `C[C@H](CO)N1C[C@H](C)[C@H](CN(C)C(=O)Nc2ccc3c(c2)OCO3)Oc2c(NS(=O)(=O)c3cn(C)cn3)cccc2C1=O`: inactive: 0.99.

For `COc1ccc(NC(=O)Nc2ccc3c(c2)C(=O)N([C@H](C)CO)C[C@H](C)[C@@H](CN(C)C(=O)Nc2cccc4ccccc24)OCCCC[C@H](C)O3)cc1`, the relative growth is inactive: 1.03. For the compound `C[C@@H]1CN([C@H](C)CO)C(=O)c2cc(NC(=O)c3ccncc3)ccc2O[C@H]1CN(C)S(=O)(=O)c1cn(C)cn1`, the relative growth is inactive: 0.996.

`C[C@H](CO)N1C[C@H](C)[C@@H](CN(C)S(=O)(=O)c2ccc(F)cc2)Oc2ncc(Br)cc2C1=O`: the relative growth was inactive: 0.992.

For the compound `Cc1ccc(S(=O)(=O)N2C[C@H](O)COC[C@H]3O[C@@H](CC(=O)NCCCN(C)C)CC[C@@H]32)cc1`, the relative growth was inactive: 0.999.

As for `C[C@H](CO)N1C[C@H](C)[C@@H](CN(C)S(=O)(=O)c2cn(C)cn2)OCc2ccccc2-c2ccccc2C1=O`, the relative growth is inactive: 0.994. The same measure for `C[C@H](CO)N1C[C@H](C)[C@H](CN(C)CC2CCCCC2)OCCCC[C@H](C)Oc2ccc(NC(=O)Nc3ccc4c(c3)OCO4)cc2C1=O`: inactive: 1.01; for `C=CC[C@H](CC(=O)NCCO)C(=O)N[C@H](COC(=O)[C@H](CC=C)CC(=O)OC(C)(C)C)Cc1ccccc1`: inactive: 1.02.
